{
  "source": "paper PMC4336329",
  "about": "(PLoS ONE, 2015)",
  "note": "Screen size: about 310,000 compounds; about 14,000 (4.5%) showed an effect of 50% or more. Effects have a minus sign here. The list shows a part of the results.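 Note: peak tail current of the secondary pulse compared with the same well before compound.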",
  "data": [
    {"biological_target": "human ether-à-go-go-related gene (hERG) potassium channel (human, UniProt Q12809)", "sequence (Q12809 whole entry, looked up)": "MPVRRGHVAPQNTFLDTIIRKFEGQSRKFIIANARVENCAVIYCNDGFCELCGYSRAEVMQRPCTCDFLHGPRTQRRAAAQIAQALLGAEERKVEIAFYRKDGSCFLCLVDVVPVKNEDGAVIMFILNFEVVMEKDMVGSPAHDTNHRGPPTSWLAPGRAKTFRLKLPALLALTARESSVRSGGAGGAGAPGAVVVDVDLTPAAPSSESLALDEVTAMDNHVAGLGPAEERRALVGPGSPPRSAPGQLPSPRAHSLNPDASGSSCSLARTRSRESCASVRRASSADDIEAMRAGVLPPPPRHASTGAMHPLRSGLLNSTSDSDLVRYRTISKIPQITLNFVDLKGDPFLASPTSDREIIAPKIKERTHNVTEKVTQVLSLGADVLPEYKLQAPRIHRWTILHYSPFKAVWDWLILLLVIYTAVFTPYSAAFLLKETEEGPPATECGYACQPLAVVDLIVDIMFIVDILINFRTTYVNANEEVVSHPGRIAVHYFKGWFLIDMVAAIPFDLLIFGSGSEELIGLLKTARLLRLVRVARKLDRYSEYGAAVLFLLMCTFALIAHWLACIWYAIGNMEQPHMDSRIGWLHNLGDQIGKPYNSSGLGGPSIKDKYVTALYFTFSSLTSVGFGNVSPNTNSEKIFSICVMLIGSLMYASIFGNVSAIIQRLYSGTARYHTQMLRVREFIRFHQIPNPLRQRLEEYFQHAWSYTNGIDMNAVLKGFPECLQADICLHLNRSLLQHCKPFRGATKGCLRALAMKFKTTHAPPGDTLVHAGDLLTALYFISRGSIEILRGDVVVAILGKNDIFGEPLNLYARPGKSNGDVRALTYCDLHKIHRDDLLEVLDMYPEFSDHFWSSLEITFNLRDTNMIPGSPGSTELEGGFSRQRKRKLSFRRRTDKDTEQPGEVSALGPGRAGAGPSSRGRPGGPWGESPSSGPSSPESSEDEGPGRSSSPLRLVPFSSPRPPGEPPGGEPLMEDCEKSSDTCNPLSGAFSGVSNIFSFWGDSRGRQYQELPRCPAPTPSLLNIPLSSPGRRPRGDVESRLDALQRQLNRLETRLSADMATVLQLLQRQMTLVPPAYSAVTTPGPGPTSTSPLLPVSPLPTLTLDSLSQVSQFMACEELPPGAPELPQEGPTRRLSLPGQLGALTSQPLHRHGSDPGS", "experiment": "primary screen, population patch clamp on CHO cells stably expressing hERG", "units": {"hERG current change (%, negative = inhibition) at 10uM": "%"}, "values": [
      {"compound": "O=C(/C=C/C=C/c1ccc2c(c1)OCO2)N1CCCCC1", "hERG current change (%, negative = inhibition) at 10uM": -8.23},
      {"compound": "Clc1ccccc1-c1nn2c(Cn3cnc4ccccc43)nnc2s1", "hERG current change (%, negative = inhibition) at 10uM": -12.3},
      {"compound": "O=C(CSC1c2ccccc2-c2ccccc21)N/N=C/c1ccccc1O", "hERG current change (%, negative = inhibition) at 10uM": -3.68},
      {"compound": "CCOC(=O)c1c(NC(=O)CNC2CCCCC2)sc(C)c1C", "hERG current change (%, negative = inhibition) at 10uM": 10.3},
      {"compound": "O=C(CN1C(=O)NC2(CCCCC2)C1=O)Nc1cc(C(F)(F)F)ccc1N1CCCCC1", "hERG current change (%, negative = inhibition) at 10uM": -1.7},
      {"compound": "NS(=O)(=O)c1ccc(-c2ccc(/C=N/NC(=O)c3ccccc3O)o2)cc1", "hERG current change (%, negative = inhibition) at 10uM": 23.8},
      {"compound": "Cc1noc(C)c1COc1ccc(C(=O)OCC(=O)NCc2ccccc2Cl)cc1", "hERG current change (%, negative = inhibition) at 10uM": -1.66},
      {"compound": "CCc1c(C)c(C#N)c2nc3ccccc3n2c1-n1nc(C)cc1C", "hERG current change (%, negative = inhibition) at 10uM": -1.87},
      {"compound": "CC(=O)C1=C(O)C(=O)N(c2ccc(C(=O)O)cc2)C1c1ccc([N+](=O)[O-])cc1", "note": "(centres unmarked)", "hERG current change (%, negative = inhibition) at 10uM": 20.9},
      {"compound": "CN(C)c1nc(OCCNC(=O)COc2ccccc2Cl)nc(N(C)C)n1", "hERG current change (%, negative = inhibition) at 10uM": 6.99},
      {"compound": "Nc1ccccc1SCC1CSc2nc3ccccc3c(=O)n21", "note": "(centres unmarked)", "hERG current change (%, negative = inhibition) at 10uM": -45.2},
      {"compound": "CC(C)[C@H](NC(=O)c1cc2cc(Cl)ccc2n1C)C(=O)N1CCC(C(=O)O)CC1", "hERG current change (%, negative = inhibition) at 10uM": 17.8},
      {"compound": "Cc1ccccc1-n1c(SCC(=O)c2cc(C)n(C)c2C)nnc1-c1ccncc1", "hERG current change (%, negative = inhibition) at 10uM": -24.6},
      {"compound": "COCCN1CN=C(NS(=O)(=O)c2ccc(C)cc2)NC1", "hERG current change (%, negative = inhibition) at 10uM": 16.3},
      {"compound": "CC(=O)c1ccc(OCCNS(=O)(=O)c2ccc(-n3cnnn3)c(C)c2)cc1", "hERG current change (%, negative = inhibition) at 10uM": -2.88},
      {"compound": "COc1cc(/C=C2\\SC(=Nc3ccccc3OC)NC2=O)ccc1O", "hERG current change (%, negative = inhibition) at 10uM": -21.4},
      {"compound": "COc1ccc(OC)c(C(=O)NC(CC(N)=O)c2ccc(NCCN3CCCC3)c([N+](=O)[O-])c2)c1", "note": "(centres unmarked)", "hERG current change (%, negative = inhibition) at 10uM": 8.75},
      {"compound": "CC(=O)c1ccc(NC(=O)CN2CCC(C(=O)c3ccc(F)cc3)CC2)cc1", "hERG current change (%, negative = inhibition) at 10uM": -22.9},
      {"compound": "CCS(=O)(=O)n1nc(-c2ccccc2)nc1SC", "hERG current change (%, negative = inhibition) at 10uM": -6},
      {"compound": "COc1ccc(-c2ccc(-c3noc(-c4ccccc4OC)n3)c(OC)n2)cc1", "hERG current change (%, negative = inhibition) at 10uM": 20.9},
      {"compound": "Cc1cc(NC(=O)c2cc(-c3ccco3)on2)nn1Cc1ccc(Cl)cc1", "hERG current change (%, negative = inhibition) at 10uM": -31.8},
      {"compound": "CCn1cc(C(=O)N2CCN(c3ccccn3)CC2)c2cc(OC)c(OC)cc2c1=O", "hERG current change (%, negative = inhibition) at 10uM": -14.4},
      {"compound": "Cc1ccc(C2=NCC(=O)N(CC(=O)N3CCCCC3)c3sc(C)c(C)c32)cc1", "hERG current change (%, negative = inhibition) at 10uM": -15.8}
    ]}
  ]
}
